Values of other authors, collected in paper PMC11006913.
Residue numbers refer to the chain shown, from its start. Some of the results follow.

Assays:
Settings in all cases: PBM; conditions not shown; double strand, one strand shown; scale: upbm affinity estimate (log intensity, higher = more binding, comparable within an allelic series)
[1] = biological target: HOXD13 I297V (Homo sapiens) (UniProt P35453)
[2] = biological target: HOXD13 I322L (Homo sapiens) (UniProt P35453)
[3] = biological target: HOXD13 N298S (Homo sapiens) (UniProt P35453)
[4] = biological target: HOXD13 Q325K (Homo sapiens) (UniProt P35453)
[5] = biological target: HOXD13 Q325R (Homo sapiens) (UniProt P35453)
[6] = biological target: HOXD13 R306W (Homo sapiens) (UniProt P35453)
[7] = biological target: HOXD13 S316C (Homo sapiens) (UniProt P35453)
[8] = biological target: T1, HESX1 N125S (Homo sapiens) (UniProt Q9UBX0)
T1 sequence: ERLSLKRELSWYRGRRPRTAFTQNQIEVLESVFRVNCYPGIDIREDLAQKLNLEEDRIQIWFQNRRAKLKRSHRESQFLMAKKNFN

[9] = biological target: PROP1 R112Q (Homo sapiens) (UniProt O75360)
[10] = biological target: PROP1 R99Q (Homo sapiens) (UniProt O75360)
PBX4 (Homo sapiens) = biological target: T2, PBX4 (Homo sapiens) (UniProt Q9BYU1)
T2 sequence: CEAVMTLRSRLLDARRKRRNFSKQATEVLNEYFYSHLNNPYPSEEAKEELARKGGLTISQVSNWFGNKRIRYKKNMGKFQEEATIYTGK

[11] = biological target: T3, PBX4 R215Q (Homo sapiens) (UniProt Q9BYU1)
T3 sequence: T2 sequence with R19Q

Sequence	binding signal [1]	binding signal [2]	binding signal [3]	binding signal [4]	binding signal [5]	binding signal [6]	binding signal [7]	binding signal [8]	binding signal [9]	binding signal [10]	binding signal (PBX4 (Homo sapiens))	binding signal [11]
TATAACAA [8-mer TATAACAA]	11.5	11.4	11.8	11.4	11.4	10.9	11.4					
GTTGTAAA [8-mer GTTGTAAA]	12.3	12.4	12.4	10.7	10.9	11.1	12.1					
CCTATTAA [8-mer CCTATTAA]	12.5	11.7	12.7	11.4	11.7	11.8	12.3					
CCACAGGG [8-mer CCACAGGG]	9.33	9.42	9.36	9.7	9.56	9.45	9.23					
CGTGGGGC [8-mer CGTGGGGC]	9.34	9.35	9.19	9.51	9.24	9.34	9.36					
CCGCGCCC [8-mer CCGCGCCC]	9.35	9.3	9.36	9.27	9.44	9.37	9.39					
CCCTCTGC [8-mer CCCTCTGC]	9.28	9.18	9.13	9.63	9.4	9.18	9.19					
CTCATAAA [8-mer CTCATAAA]	12.9	11.6	13.3	10.7	12.3	12.2	12.9					
ATTTAATA [8-mer ATTTAATA]	12.4	11.9	12.7	12.1	12.3	12	12.3					
CCCATTAA [8-mer CCCATTAA]	12.3	11.5	12.5	10.6	11.1	11.3	12					
AAGGTGGG [8-mer AAGGTGGG]	9.56	9.52	9.56	9.32	9.51	9.44	9.55					
CCAAGGGC [8-mer CCAAGGGC]	9.67	9.5	9.53	9.75	9.59	9.47	9.58					
GCTATTAA [8-mer GCTATTAA]	12.2	11.5	12.4	11.3	11.5	11.4	12	9.67				
AATTAGGT [8-mer AATTAGGT]			11		10.9			11.1	12.5	12		
CGCTTTCC [8-mer CGCTTTCC]	9.28	9.19	9.21	9.52	9.5	9.34	9.26					
CGATATTA [8-mer CGATATTA]	11.2	10.9	11.3	11	11.3	10.7	11.1					
CCTCATAA [8-mer CCTCATAA]	12.1	10.9	12.4	10.7	11.7	11.1	11.9					
TATGATGA [8-mer TATGATGA]								8.94			10.6	10.2
GCCCGGGC [8-mer GCCCGGGC]	9.43	9.43	9.41	9.51	9.65	9.3	9.37					
ATTTATGG [8-mer ATTTATGG]	12.6	11.4	12.8	10.8	11.3	11.8	12.5					
CGCAGCCG [8-mer CGCAGCCG]	9.23	9.31	9.15	9.28	9.36	9.41	9.34					
CTTTATGA [8-mer CTTTATGA]	12.2	11.1	12.5	10.8	11.5	11.4	12.1					
GTCCGGAC [8-mer GTCCGGAC]	9.8	9.68	9.75	9.86	9.91	9.73	9.82					

Sequence	binding signal [1]	binding signal [2]	binding signal [3]	binding signal [4]	binding signal [5]	binding signal [6]	binding signal [7]	binding signal [8]	binding signal [9]	binding signal [10]	binding signal (PBX4 (Homo sapiens))	binding signal [11]
AGCCCGGG [8-mer AGCCCGGG]	9.5	9.53	9.54	9.67	9.51	9.47	9.55					
AGTTAACA [8-mer AGTTAACA]	11.7	11.7	11.9	10.8	10.9	10.8	11.4					
CCTGCCGC [8-mer CCTGCCGC]	9.3	9.29	9.2	9.35	9.3	9.39	9.31					
CCTCCGGA [8-mer CCTCCGGA]	9.53	9.34	9.44	9.52	9.29	9.44	9.41					
GCTCGTAA [8-mer GCTCGTAA]	12.4	12.6	12.7	10.2	11.1	11.3	12.3					
CCGCCTCC [8-mer CCGCCTCC]	9.4	9.35	9.25	9.36	9.29	9.32	9.35					
CCCAGACC [8-mer CCCAGACC]	9.31	9.24	9.13	9.54	9.28	9.26	9.22					
CTGAGGGC [8-mer CTGAGGGC]	9.53	9.6	9.59	9.46	9.44	9.43	9.6					
TAATAAAA [8-mer TAATAAAA]	12.8	11.6	13	11.3	12.6	12.4	12.8					
ATTGTAAA [8-mer ATTGTAAA]	12.3	12.3										
GCCCCCAA [8-mer GCCCCCAA]	9.57	9.41	9.54	9.42	9.24	9.29	9.49					
GTGTATTA [8-mer GTGTATTA]	11.2	10.9	11.4	11.6	11.8	10.8	11.1					
GTTTATTA [8-mer GTTTATTA]	12.6	11.4	12.9	11.4	12.4	12	12.6					
CCTGCGAG [8-mer CCTGCGAG]	9.46	9.37	9.4	9.59	9.47	9.42	9.54					
TGTAGTAA [8-mer TGTAGTAA]	11.5	11.3	11.7	10.7	11	10.8	11.4					
TCCATAAA [8-mer TCCATAAA]	12.3	11.1	12.6	10.3	10.8	11.7	12.2					
ATTTATTG [8-mer ATTTATTG]	12.8	11.6	13	11	11.8	12.2	12.7					
CCCGGAGG [8-mer CCCGGAGG]	9.29	9.2	9.22	9.46	9.24	9.27	9.25					
CGGGTGGC [8-mer CGGGTGGC]	9.22	9.31	9.2	9.35	9.49	9.33	9.25					
CTAGTAAA [8-mer CTAGTAAA]	12.4	12.3	12.7	10.6	11.5	11.4	12.4					
ATTACGAG [8-mer ATTACGAG]	12.2	12.4	12.4	10.7	11	11.1	12					
TCGTAAAA [8-mer TCGTAAAA]	12.7	12.8	13	10.7	11.4	12	12.7					
GCGTGCGA [8-mer GCGTGCGA]	9.49	9.58	9.44	9.57	9.47	9.46	9.45					

Sequence	binding signal [1]	binding signal [2]	binding signal [3]	binding signal [4]	binding signal [5]	binding signal [6]	binding signal [7]	binding signal [8]	binding signal [9]	binding signal [10]	binding signal (PBX4 (Homo sapiens))	binding signal [11]
CCGGCCTC [8-mer CCGGCCTC]	9.41	9.36	9.42	9.39	9.36	9.28	9.34					
CGCCCTTC [8-mer CGCCCTTC]	9.56	9.53	9.47	9.55	9.56	9.46	9.46					
CTGCGGAC [8-mer CTGCGGAC]	9.55	9.53	9.37	9.27	9.39	9.31	9.43					
ACTTTTTA [8-mer ACTTTTTA]	11.3	11	11.4	10.8	11	10.6	11.1					
ATATGTGA [8-mer ATATGTGA]	11.4	10.8	11.6	10.8	11	10.9	11.2					
CAATAAAG [8-mer CAATAAAG]	12.4	11.2	12.7	10.7	11.5	11.7	12.4					
CTCGGGGC [8-mer CTCGGGGC]	9.38	9.33	9.34	9.35	9.3	9.33	9.4					
CGGAGGGA [8-mer CGGAGGGA]	9.35	9.17	9.27	9.45	9.4	9.41	9.37					
AGGCCCAC [8-mer AGGCCCAC]	9.47	9.5	9.46	9.27	9.45	9.35	9.44					
CTCGTTAA [8-mer CTCGTTAA]	12.7	12.7	12.8	10.3	11.3	11.5	12.4					
ATTAATGG [8-mer ATTAATGG]	12.3	11.6	12.5	11.4	11.6	11.6	12.2					
CCGGCAGC [8-mer CCGGCAGC]	9.51	9.33	9.38	9.72	9.35	9.45	9.53					
CTAATAAA [8-mer CTAATAAA]	12.9	11.6	13.1	11	12.7	12.3	12.9					
ATTTATAG [8-mer ATTTATAG]	12.8	11.7	13	11.8	11.9	12.3	12.8					
CTATAAAG [8-mer CTATAAAG]	12.2	11.2	12.4	11.3	11.4	11.5	12.1					
CAGTCGCA [8-mer CAGTCGCA]	9.51	9.43	9.49	9.65	9.6	9.53	9.52					
AGGTCAGG [8-mer AGGTCAGG]	9.4	9.49	9.46	9.49	9.4	9.42	9.41					
CCTATAAA [8-mer CCTATAAA]	13	11.8	13.2	11.9	12	12.5	12.9					
CATATAAA [8-mer CATATAAA]	12.5	11.3	12.7	12.4	12.5	11.9	12.4					
CCCCCTCG [8-mer CCCCCTCG]	9.52	9.32	9.52	9.46	9.5	9.2	9.37					
TCCTATAA [8-mer TCCTATAA]	11.9	11	12	11.1	11.2	11.2	11.8					
CCGAACGC [8-mer CCGAACGC]	9.63	9.47	9.52	9.6	9.56	9.54	9.67					
TCTATAAA [8-mer TCTATAAA]	12.6	11.5	12.8	11.4	11.5	12.2	12.6					
